# Data: ChEMBL document CHEMBL4888484, “Replenishing the malaria drug discovery pipeline: Screening and hit evaluation of the MMV Hit Generation Library 1 (HGL1) against asexual blood stage Plasmodium falciparum ,using a nano luciferase reporter read-out” (2022)
# Screen size: about 150,000 compounds; about 540 (0.36%) showed an effect of 50% or more. Some of the results follow.
# Test system: Plasmodium falciparum
# Experiment: Primary screen in NF54 nanoGlo assay, in single point, at 2uM, 72h; a lower Z score goes with more inhibition
# Type: functional, Erythrocyte
# Details: timepoint 72 hour
Structure (SMILES),% Inhibition,Z score
C=CCn1c(=O)c2sc(N(CC)CC)nc2n(CC(=O)Nc2cccc(OC)c2)c1=O,-31%,2.75
O=C(NCCc1ccc(Cl)cc1)c1nnc([C@H](Nc2ccccc2)c2ccc(Cl)cc2)o1,2%,-0.31
COc1ccc(-c2noc(-c3cccn3CC(=O)N3CCN(c4ccc(F)cc4)CC3)n2)cc1OC,12%,-1.5
COc1ccc(-c2cc3n(n2)C[C@@](C)(C(=O)NCc2ccccc2)N(Cc2ccc4c(c2)OCO4)C3=O)cc1,52%,-8.23
NC1CC(c2cc(NCc3ccc(Cl)cc3)nc(C3CC3)n2)C1 (configuration not stated),19%,-3.37
CN(C)c1ccnc(N2CCOc3ccccc3C2)n1,-23%,2.96
COc1nc(NC[C@H]2CCN(C3CCCCC3)C2)ncc1F,-1%,0.19
COc1c[nH]c(C(=O)N2CCC[C@H](N3CCc4ccccc4C3)C2)cc1=O,-11%,1.12
Nc1cccc(Oc2ccc(C(c3ccc(Oc4cccc(N)c4)cc3)(C(F)(F)F)C(F)(F)F)cc2)c1,7%,-1.22
Cc1nn(C)c2nc3c(c(N)c12)C(=O)C[C@@H](c1ccccc1)C3,-14%,1.9
Cc1ccccc1N1CCN(C(=O)c2csc(CN(Cc3cccc(Cl)c3)Cc3cccc(C(F)(F)F)c3)n2)CC1,-22%,1.96
CCOc1ncccc1C(=O)N[C@H]1CCCc2occc21,0%,-0.04
CCCCNC(=O)C1CCN(c2nc3ccccc3n(CC)c2=O)CC1,-7%,1.26
c1ccc(CN2CCO[C@H](c3nc(-c4ccccc4)no3)C2)cc1,-2%,0.19
OC1CCN([C@H]2CCN(Cc3cccc(C(F)(F)F)c3)C[C@@H]2O)CC1,-11%,2.08
CCc1nc(N2CC[C@H](NC(=O)c3cnccn3)[C@@H](O)C2)no1,-16%,1.57
O=C(c1ccccc1F)N1CCN(C(=O)c2nnn3c2CO[C@H](c2ccccc2)C3)CC1,-15%,2.41
CCCCNC(=O)CNc1cc(Cl)ccc1C(=O)NCC,-5%,0.71
COc1ccc([C@@H]2c3[nH]c4ccc(Cl)cc4c3CCN2C(=O)NCc2ccc(F)cc2)cc1,21%,-3.15
CC(F)(F)CN1CCC[C@H](c2n[nH]c(C3CC3)n2)C1,-4%,0.9
CC(C)(C)NCCNC(=O)C(=O)Nc1ccc(Cl)c(F)c1,-7%,1.01
